The text below walks through data of PubChem BioAssay AID1963576 (National Center for Advancing Translational Sciences (NCATS), 2024).

The campaign covered roughly 46,000 compounds. About 60 (0.1%) were called active. About 3% were inconclusive and are not listed. Calls follow the shape of the dose curve; as a rule, active = well fitted inhibition curve with a large enough effect; inconclusive = small, poorly fitted or top-dose-only effect; inactive = no such curve, though single readings can be large or run the other way. This is one part of the list.

The test can be described thus: Primary qHTS assay for Inhibitors of ovarian cancer metastasis using an organotypic tumor microenvironment (TME) model. Also: nearly all actives have a fitted effect of over 65% in size.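 As to activity change, negative = inhibition: plate controls were DMSO wells for no effect and tomatine positive control wells for full effect.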 As to conditions: SKOV3ip1-GFP adhesion/invasion on 3D omental model, fluorescence; series mostly up to 45.8 µM; activity change, negative = inhibition: at the top concentration. The method in brief:
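Primary human omental fibroblast/mesothelial 3D culture pre-formed 48 h. SKOV3ip1-GFP cells added with compounds (0.36-46 umol/L), incubated 2 h RT/16 h 37 C, fixed; GFP cells quantified at 488/509 nm.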
(In qHTS, concentration-response curves come from the screen itself.)
For `Cc1cccc(N(C)C(=O)C(Cc2ccccc2)NS(=O)(=O)c2cccc3nsnc23)c1` (configuration not stated), the “activity change, negative = inhibition” value was inactive: -4.71%. As for `Cc1cc(C)c(NC(=O)CSc2nc(C)cc(C)c2C#N)c(C)c1`, the compound was called inactive. As for `COc1ccc(N2CCN(S(=O)(=O)c3c(C)nc4scc(C)n4c3=O)CC2)cc1`, the “activity change, negative = inhibition” value is inactive: -7.82%. Still for that read-out and setting: to `Cc1ccc(C)c(NC(=O)N2CC=C(c3c[nH]c4ccccc34)CC2)c1` belongs inactive: -1.93%. As to `Cc1ccc2oc(=O)c3cnn(CC(=O)N(C)c4ccc(F)cc4)c3c2c1`, the compound was classed as inactive.

As for `CC(=O)c1ccc(NC(=O)C2CCN(S(=O)(=O)c3ccc4c(c3)CCCN4C(=O)C3CCC3)CC2)cc1`, the “activity change, negative = inhibition” value is inactive: 8.65%. The same measure, in the same setting: to `CCOc1ccc(-n2c(SCC(=O)Nc3ccccc3OC)nc3c(oc4ccccc43)c2=O)cc1` belongs inactive: 2.82%. Still for that read-out and setting: the same measure for `COc1ccccc1OCC(=O)N(Cc1ccc(N(C)C)cc1)CC1CCCO1` (configuration not stated): inactive: 10.1%.

For the compound `COc1ccc(Nc2ccc3cc(S(=O)(=O)N4CCCC4)ccc3n2)cc1Cl`, the “activity change, negative = inhibition” value is inactive: 2.44%. Same read-out and setting: the same measure for `CCc1ccccc1NC(=O)CN(Cc1ccccc1)S(=O)(=O)c1ccc2nc(C)sc2c1`: inactive: 9.05%.

Consider `COc1ccc(-n2nc3ccc(NC(=O)COc4ccc(C)c(C)c4)cc3n2)cc1`, for which the call was inactive. With `CCOC(=O)c1c(NC(=O)CCCOc2ccc(C(C)(C)C)cc2)sc2c1CCC2`, the “activity change, negative = inhibition” value is inactive: -0.627%. Same read-out and setting: to `COc1ccc(N2CCN(C(=O)Cc3c(C(=O)O)c(C)cn3C)CC2)cc1` belongs inactive: -14.2%; to `O=C(Cn1c(-c2cccs2)cc2cc(Cl)ccc21)NCc1ccccc1`, inactive: 5.79%. On the same count and under the same terms, to `CCCSc1nc(=O)c2c(n1C)NC(=O)CC2c1cccc(F)c1F` (configuration not stated) belongs inactive: 0.684%; to `CCC(=O)N1CCc2cc(Br)cc(S(=O)(=O)NCCc3ccccc3Cl)c21`, inactive: 4.62%.

`Cc1ccc(-c2c(C(=O)N3CCN(c4cccc(C)c4C)CC3)oc(=O)c3ccccc23)cc1`: the result was inactive. On the same count and under the same terms, the same measure for `CCc1cc(C(=O)Nc2cnn(Cc3ccc(F)cc3)c2)no1`: “inactive”.

For the compound `CC(C)Oc1ccc(C(=O)N[C@H](CNC(=O)CN(C)C)Cc2ccc(-c3cn4cccc([C@H](C)O)c4n3)cc2)cc1Cl`, the “activity change, negative = inhibition” value was inactive: -12.8%. As for `Cc1cccc(NC(=O)Cn2cc(S(=O)(=O)c3ccc(F)cc3)c(=O)c3cc4c(cc32)OCO4)c1`, the compound was called inactive. For the compound `COc1ccc(C)cc1NS(=O)(=O)c1ccc2c(c1)[C@H]1C=CC[C@H]1[C@@H](c1cccc(Cl)c1)N2`, the “activity change, negative = inhibition” value was inactive: -10.8%. With `COc1ccc(OC)c(CCNC(=O)c2cc3c(-c4ccccc4F)nn(C)c3s2)c1`, the outcome was inactive.

As for `COc1ccc(CCNC(=O)CCc2c(C)nc3cc(-c4ccccc4)nn3c2C)cc1OC`, the compound was called inactive. As for `Cc1cc(C)cc(NC(=O)CSCn2nnc3c(=O)[nH]c(Cc4ccc(F)cc4)nc32)c1`, the “activity change, negative = inhibition” value was inactive: -1.14%. Still for that read-out and setting: the same measure for `COc1ccccc1CCNC(=O)CCn1c(=O)c2cccn2c2ccc(F)cc21`: inactive: -3.86%; for `CCOc1cc(C(=O)Nc2ccc3oc(-c4ccc(CC)cc4)nc3c2)cc(OCC)c1OCC`: inactive: -12.5%.

`O=C(Nc1cc(C(F)(F)F)ccc1Cl)c1cc(S(=O)(=O)NCc2ccccc2)ccc1F`: the “activity change, negative = inhibition” value was inactive: -20.9%. On the same count and under the same terms, the same measure for `CCOC(=O)c1cccc(NC(=O)Cn2c(=O)nc(-c3ccccc3)c3ccccc32)c1`: inactive: 6.81%. On the same count and under the same terms, to `CCc1cc2c(cc3c(=O)n(CCCC(=O)NCc4ccccc4Cl)nc(CC)n32)s1` belongs inactive: -5.94%; to `Cc1cccc(OCc2ccc(-c3nc(C#N)c(N4CCC(C(N)=O)CC4)o3)o2)c1`, inactive: -15.2%. On the same count and under the same terms, to `Cc1ccc(OCC(=O)Nc2ccc3nc(SCc4ccccc4)sc3c2)cc1` belongs inactive: 1.27%. With `CCCCN(Cc1ccccc1)C(=O)CN(C)S(=O)(=O)c1ccc2c(c1)c(=O)n(C)c(=O)n2C`, the compound was classed as inactive. As to `Cc1noc(/C=C/c2ccco2)c1S(=O)(=O)N1CCC(C(=O)Nc2ccc(F)cc2F)CC1`, the “activity change, negative = inhibition” value is inactive: -3.02%. On the same count and under the same terms, the same measure for `COc1ccc(NC(=O)C(Cc2ccccc2)NS(=O)(=O)c2ccc(Br)s2)cc1OC` (configuration not stated): inactive: -8.32%. For `COCCCNC(=O)CC(c1cc(OC)c(OC)c(OC)c1)N1Cc2ccccc2C1=O` (configuration not stated), the result was inactive. As to `Cc1ccc(-c2nc3ncccc3o2)cc1NC(=O)COc1ccc(C(C)C)cc1`, the “activity change, negative = inhibition” value is inactive: 6.83%. As to `CCOC(=O)c1cccc(NC(=O)CC2C(=O)N(c3ccc(F)cc3)C(=O)N2C(C)C)c1` (configuration not stated), the “activity change, negative = inhibition” value is inactive: 0.0477%.

Take `CCn1cc(C(=O)N2CCN(c3ccccc3)CC2)c(=O)c2cc(S(=O)(=O)N(C)C3CCCCC3)ccc21`: the “activity change, negative = inhibition” value is inactive: 11.9%. As to `CCOc1ccc(Sc2cc(C(=O)NCc3ccc(F)cc3)c3ccccc3n2)cc1`, the outcome was inactive. Turning to `CC(=O)CSc1nc(-c2ccccc2)[nH]c1S(=O)(=O)c1ccc(C)cc1`, the “activity change, negative = inhibition” value is inactive: 16.9%. On the same count and under the same terms, to `COC(=O)c1ccc(Cn2c(=O)cc(C)c3c(C)nn(C)c32)cc1` belongs inactive: -7.75%. For the compound `Cc1cc(=O)[nH]c2nnc(SCC(=O)Nc3cc(C(F)(F)F)ccc3Cl)n12`, the call was inactive. The same measure, in the same setting: to `CCC(C)NC(=O)Cn1ncc2c(C)n(Cc3ccc(F)cc3)c(C)c2c1=O` (configuration not stated) belongs “inactive”. On to `CCc1ccc(CNC(=O)c2nn(-c3ccc(C)c(C)c3)nc2CO)cc1`, for which the “activity change, negative = inhibition” value is inactive: -3.43%. Same read-out and setting: to `Cc1ccc2c(CNCc3cccs3)c(C(=O)O)n(Cc3ccc(F)cc3)c2c1` belongs inactive: -5.97%. Same read-out and setting: the same measure for `Cc1ccc2c(=O)cc(C(=O)Nc3sc4c(c3C(=O)NCc3ccco3)CCCC4)oc2c1C`: inactive: 4.52%. In the case of `COc1cc(Cl)c(C)cc1NC(=O)CSc1cc(=O)n(C)c2cc(Cl)ccc12`, the outcome was inactive.
